This note sets out measurements from the supplement of paper PMC11417369.

The other results are listed elsewhere or left out.

This experiment concerns PF3D7_0420300 AP2 domain 1 (GST-tagged). Kind of experiment: gcPBM binding intensity (ln(normalized median fluorescence intensity)); higher = stronger DNA binding. In outline:
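Alexa488 anti-GST antibody, scanned at 488 nm, detected GST-tagged P. falciparum DNA-binding domains that had been expressed in E. coli and incubated for 1 h on an Agilent 4 × 180k array. The array carried primer-extended double-stranded 36-bp intergenic genomic probes and negative controls. Binding intensity is the highest Masliner-normalised natural-log median intensity across replicate spots of either orientation of each probe.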
“TATAATTTAGCTTGTGCATGCAGGTGCTACATTTGT [TGCATGCA_site217]”: the “gcPBM binding intensity (ln)” value amounted to 9.06. Under “TATATATATATATACACACACATATATATATATATA [CACACA_site1346]” stands 9.29; under “GCATAAGAAATAAATAGTACACACATAGACACACAC [XGTACX_site3095]”, 10. As for “ATAAGATATGTATATACACACATTTATTTACATATA [CACACA_site3263]”, the “gcPBM binding intensity (ln)” value stood at 9.54. “CGCACAAAAATATACACACACACATCTATATTTATT [CACACA_site7675]”: the “gcPBM binding intensity (ln)” value is 10. Under “AAAACAAATGAGTACACACACATAAAAGTTGAAAAT [CACACA_site6238]” stands 10.

In the case of TACCCATATTAATATGTGCGCATATAAAAGTCAAAC, the “gcPBM binding intensity (ln)” value worked out at 9.28.

For the sequence “TTTTTTTAAACTGAAAGTACTTATTCCAAGAAAATA [XGTACX_site50]”, the “gcPBM binding intensity (ln)” value was 8.64. On to “ATATATATATCAACAACACACGATTAACTAAAAAAA [CACACA_site302]”, for which the “gcPBM binding intensity (ln)” value came out at 9.59. Under “ATAATGACTAAATTTAAACACACAAGGGGAGTTTAC [CACACA_site8209]” stands 9.51; under “CCTTATTATTATTTTACACACGTCCTAATAAGAGGA [CACACA_site1319]”, 9.2. The figure for “TATTTAAAAATATATACACACATTTTATATTATTAT [CACACA_site781]” is 9.42.

“AATATATAAATAAATACACACATAAAATAGAAATAT [CACACA_site1663]”: the “gcPBM binding intensity (ln)” value amounted to 10. Under “AAAAACAAAAAAGAAGCACACATATATATATATATA [CACACA_site8779]” stands 9.6. The figure for “TTTATCTGATATATTACACACAAAAAAAAAAAAAAA [CACACA_site7637]” is 9.18. Under “AATATTATATATATGGGTACTAATTCCTTTAATTTC [XGTACX_site102]” stands 9.14; under “TATTTTACAAAATAAGGTACGTAAATATATGGTAGG [XGTACX_site2133]”, 9.47; under “AAATATCTTTTATATTGTACATATTCCTTATGTGGA [XGTACX_site7638]”, 9.

For the sequence “ATTTTTTTTATTTTTTCAATATATATATATATATAT [CACACA_negctrl_site1444]”, the “gcPBM binding intensity (ln)” value stood at 9.32. On to “TTATATATATATAATACACACATAATAATATATTTA [CACACA_site3038]”, for which the “gcPBM binding intensity (ln)” value worked out at 9.39. The figure for “GAAATAGAAATAAAATAGGCATACAATAGAACTAAG [TGCATGCA_negctrl_site537]” is 9.65; for “TTATATATATATTATAGTACATATATAATATAGTAA [XGTACX_site6869]” it is 9.04. Turning to “ATATATGAGCAAAAATATATAAGATAACACATAAAT [CACACA_negctrl_site167]”, the “gcPBM binding intensity (ln)” value stood at 9.56.

For “TCTCTATAAATAAATACATGCATATAATAAAGAATT [TGCATGCA_site710]”, the “gcPBM binding intensity (ln)” value was 9.34. As to “CGTTATATATATAAAAGTACAAAAATTAAACATTCC [XGTACX_site4568]”, the “gcPBM binding intensity (ln)” value was found to be 9.35. Under “ATATGTAAATAAATATGTACTCATTTATTATTTTAT [XGTACX_site8748]” stands 9.3; under “ATATATACAAGTATTTTTTTTTCAAACATTATTTTT [CACACA_negctrl_site1808]”, 9.15; under “ATATGTATATTTTTTTGTACGTATTTATGTGTGTGT [XGTACX_site2093]”, 9.92. The figure for “ATATTTTATGTGTTGGTGCACATCTTTATTTAAACT [GTGCAC_site9736]” is 9.58; for “ATATATATAATATAATGTACGTATAATAATATGAGA [XGTACX_site2282]” it is 9.46. As for “TAATAAATAAAATATGCACACAAATATAGGAAACAA [CACACA_site8820]”, the “gcPBM binding intensity (ln)” value was 9.85. The figure for “ATATATATATATATATGTACATAATAATATATATTA [XGTACX_site111]” is 9.15.

In the case of “TAAAAGGTGTATATAATACACACGTGGGATTAGAAT [CACACA_site610]”, the “gcPBM binding intensity (ln)” value worked out at 9.47. The figure for “AAAATAAACAATGAACAATAAACAATGAACAATGAA [CACACA_negctrl_site1194]” is 9.66; for “TATATAAAGCATTGTAGTACTACCAATATTTTTTTT [XGTACX_site3523]” it is 9.2. The figure for “AAAAAATATACATATACACACATATGTATATAGAAT [CACACA_site2170]” is 9.58; for “AAAATATTATAAATTTGTACTTATAAATATTGTATA [XGTACX_site8165]” it is 8.98; for “ATATGTTATATGTAATGTACTTTTGATGTATATATT [XGTACX_site8615]” it is 9.34. The figure for “TCGTACTTGTATTATGCACACATATAATTAAACATA [CACACA_site9089]” is 9.52.

With “AATAATCAAATATTAAAAATTGTGCAAAAAAAAAAA [XGTACX_negctrl_site399]”, the “gcPBM binding intensity (ln)” value came out at 9.35. Under “AAAAAAAAAAATATATTATTTTACTTGTTTATTTTT [GTGCAC_negctrl_site435]” stands 9.15; under “TATGAAAAAATATATACACACATAATAAAGGTATAT [CACACA_site3737]”, 9.75; under “TTTGTTTTAAATATTATACACACGTAAAAGTATAAT [CACACA_site7954]”, 9.28. The figure for “TAATATTATATATAAACACACATACCCATGTAAATA [CACACA_site5170]” is 9.6; for “TAATTCGCAAAAGAAAGAAATTAAGAAAAAGAAAAA [XGTACX_negctrl_site614]” it is 8.82; for “TTCAATAGTAAGTATACACACATATATATATATAAA [CACACA_site2687]” it is 9.38. Turning to “CAAGCTATGTATTCTACACACACATACACCCATATA [CACACA_site9133]”, the “gcPBM binding intensity (ln)” value was found to be 9.98. Under “TTTCTTTTTTTTTTTTCATTGATCCATTTATGATTA [TGCATGCA_negctrl_site225]” stands 9.22; under “TTTTTAAAAATATACACACACAGATATTATAGATAT [CACACA_site6511]”, 9.79.

As for “AGTATACATATATATACACACACACCGATATATATA [CACACA_site8357]”, the “gcPBM binding intensity (ln)” value turned out to be 10.1. Under “TTAATATATTAAATCTTACACACTAAAAAATATGTA [CACACA_site307]” stands 9.16; under “TAAAAAAAATAAACGTGTACATAAAAATGAATATGT [XGTACX_site119]”, 9.64. Under “AACGTTAAAAAAAAAATATATATAAGGAGAAAGCAC [XGTACX_negctrl_site338]” stands 9.9. The figure for “GAAAATATTATAGCACCACACACTTATTTTATATAT [CACACA_site2265]” is 9.64; for “TATGCGTCTTGCCTTGCACACTTTTATGAAAAAAAA [CACACA_site5174]” it is 9.22; for “TATATATTTTTTAATTGTACACTTCAAAAACAAAAA [XGTACX_site5595]” it is 8.92. For “ATAATCAACATTAGGTGTACAAAATATGTATGTTTT [XGTACX_site6696]”, the “gcPBM binding intensity (ln)” value came out at 9.3. As for GTAGTTATATTAAGGGTGCTTAATTAGATTAAACAA, the “gcPBM binding intensity (ln)” value came out at 9. In the case of “AGAATAAATAAATATTGTACATATAAAATATATATA [XGTACX_site896]”, the “gcPBM binding intensity (ln)” value amounted to 9.14. Under “TTCAAATTTCCACATACACACCTTGTAGATATATAT [CACACA_site7984]” stands 9.48.

On to “AAAAACTTAATATTGACACACATTTTTAAGAATAAT [CACACA_site4291]”, for which the “gcPBM binding intensity (ln)” value came to 9.26. Under “ATTGAACACATCTATGCATGCACGGAAAAAAGTACA [TGCATGCA_site401]” stands 9.41.

Regarding “TTTTTTAAAATATGGACACACATATATATATCTGTA [CACACA_site5535]”, the “gcPBM binding intensity (ln)” value was found to be 9.1. On to “TATGCAATATATTATATTCTGTAAATATTATATATT [TGCATGCA_negctrl_site67]”, for which the “gcPBM binding intensity (ln)” value was 9.1. Under “TATAAATATTTTATTGTACACACTTTTTATGAATGA [CACACA_site3136]” stands 9.27; under “TAATATTTCATTAGGTGTACACTACATAGTAGTAGA [XGTACX_site366]”, 9.02. The figure for “GTTTGTTTGTTTGTTCGTACATATATAAAATAAAAA [XGTACX_site4731]” is 9.35; for “AGACCTATGATATATACACACATATATTTATTTATA [CACACA_site6630]” it is 9.59. In the case of “ATTATAACACTTATTTCATTTGTATGCCCTTTAAAA [CACACA_negctrl_site955]”, the “gcPBM binding intensity (ln)” value was found to be 9.39. With “TATATAACTAAAATAACACACATATATAAAAATATA [CACACA_site7416]”, the “gcPBM binding intensity (ln)” value turned out to be 9.61. For “TGGATACACAAAAATTAAAAAAATAAACAAACAAAT [GTGCAC_negctrl_site105]”, the “gcPBM binding intensity (ln)” value came out at 9.73. Take “AAAAAATAGTGGTATGCATGTCCCTTGTATTTTCTT [TGCATGCA_site587]”: the “gcPBM binding intensity (ln)” value worked out at 9.44. The figure for “TACTTTTATATGAATACACACAGGAATATAAATATG [CACACA_site7647]” is 9.45. The figure for “TCCTTACATTTTAAAACACACAAAAATTAATTGTTA [CACACA_site2313]” is 9.16; for “AAAATACCCATTTTAGTACACACTTAAAAAATTATT [CACACA_site8966]” it is 9.31; for “TATAAAAAATTAAAATTTTTCTTATTTTTTTTAGAT [TGCATGCA_negctrl_site125]” it is 8.72. Under “ACCACCAGGAACAAAGCACATTAGGAAAAATAAAAC [XGTACX_negctrl_site228]” stands 9.81. Take “TTGAATAAATTGGAATAAATATAATAAAATAAGGAA [XGTACX_negctrl_site302]”: the “gcPBM binding intensity (ln)” value turned out to be 9.36. Under TACCAATAAATGAAGGTGCGTGCTTGCCTTTGCTAT stands 9.19.

On to “CATACATATATTATTGCACACATATAAAATACCCCC [CACACA_site9292]”, for which the “gcPBM binding intensity (ln)” value was 10.3. As to “TAGGAATTTAATAAATGTACATATACATAATATATA [XGTACX_site3672]”, the “gcPBM binding intensity (ln)” value was found to be 9.11.

Regarding “TTGTATAGTCTGATATGTACATATATATATATATAA [XGTACX_site4307]”, the “gcPBM binding intensity (ln)” value amounted to 9.18. Under “TTTGGGTATACACATACATGCATGTCCTTATATATA [TGCATGCA_site84]” stands 9.39; under “ATATCATAAATTTATGCATGTTCTTTCTTCAACTCT [TGCATGCA_site992]”, 9.3. The figure for “ATTATTTATTTATTTTTTTTTTTTTTCTCTTTTCCT [GTGCAC_negctrl_site656]” is 9.11; for “AGTAGGCATATTGGTTGTACAAAAAAATTATGCACC [XGTACX_site8925]” it is 9.27; for “TTTTTTTTTTCTCTCGCACACATTTTTTAAAATGAG [CACACA_site2607]” it is 9.38. Under “ATATTTATATAGATGTGTACATAAATATAATAACAT [XGTACX_site1681]” stands 9.4.
